Source: PMC4336329 (PLoS ONE, 2015)
Screen size: about 310,000 compounds; about 2,200 (0.71%) showed an effect of 50% or more. Effects have a minus sign here. The list shows a part of the results.

molecular target: human ether-à-go-go-related gene (hERG) potassium channel (human, UniProt Q12809); experiment: primary screen, population patch clamp on CHO cells stably expressing hERG
Sequence (Q12809 whole entry, looked up): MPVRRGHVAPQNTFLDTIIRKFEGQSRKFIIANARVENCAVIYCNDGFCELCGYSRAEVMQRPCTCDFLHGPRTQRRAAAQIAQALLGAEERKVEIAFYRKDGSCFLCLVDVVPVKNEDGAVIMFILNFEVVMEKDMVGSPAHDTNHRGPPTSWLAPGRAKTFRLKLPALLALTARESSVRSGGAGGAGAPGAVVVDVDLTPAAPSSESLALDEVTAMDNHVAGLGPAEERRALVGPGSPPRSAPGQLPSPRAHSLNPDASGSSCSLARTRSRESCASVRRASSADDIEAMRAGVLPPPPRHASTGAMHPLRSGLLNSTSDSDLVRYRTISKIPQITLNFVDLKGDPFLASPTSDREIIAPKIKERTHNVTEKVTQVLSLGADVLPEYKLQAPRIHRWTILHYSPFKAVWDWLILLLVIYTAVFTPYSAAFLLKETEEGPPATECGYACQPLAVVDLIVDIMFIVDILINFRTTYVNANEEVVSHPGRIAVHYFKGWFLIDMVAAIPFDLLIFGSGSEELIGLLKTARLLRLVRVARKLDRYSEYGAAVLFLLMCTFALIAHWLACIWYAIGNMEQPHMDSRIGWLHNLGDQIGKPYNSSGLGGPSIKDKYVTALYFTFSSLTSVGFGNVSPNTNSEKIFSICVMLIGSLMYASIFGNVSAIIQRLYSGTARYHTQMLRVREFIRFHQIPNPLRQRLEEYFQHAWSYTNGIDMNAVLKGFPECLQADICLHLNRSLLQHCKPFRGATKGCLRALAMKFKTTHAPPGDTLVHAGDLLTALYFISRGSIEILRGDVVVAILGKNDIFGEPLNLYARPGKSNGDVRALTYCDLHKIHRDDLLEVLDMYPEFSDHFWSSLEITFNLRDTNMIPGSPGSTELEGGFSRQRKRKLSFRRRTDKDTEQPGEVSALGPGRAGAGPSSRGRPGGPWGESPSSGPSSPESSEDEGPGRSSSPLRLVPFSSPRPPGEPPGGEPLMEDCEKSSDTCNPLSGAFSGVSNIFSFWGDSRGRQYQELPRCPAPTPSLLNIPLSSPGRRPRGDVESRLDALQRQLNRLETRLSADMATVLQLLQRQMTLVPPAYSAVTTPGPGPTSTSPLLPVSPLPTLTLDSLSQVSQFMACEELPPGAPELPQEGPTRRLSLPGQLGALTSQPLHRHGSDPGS

Structure (SMILES) | hERG current change (%, negative = inhibition) at 1uM
COc1ccc2nc(SCC(=O)NC(C)c3ccccc3)[nH]c2c1 (stereo not drawn) | 7.92%
NC(=O)c1c(/N=C/c2cccnc2)sc2c1CCCC2 | 6.74%
COc1ccc(C2NC(=O)NC(C)=C2[N+](=O)[O-])cc1 (stereo not drawn) | 6.23%
COc1ccc(-c2cc(-c3ccccc3)c(C#N)c(=S)[nH]2)cc1 | 9.89%
COc1ccc(/C=C2/SC(=O)N(CCC(=O)Nc3ccccc3)C2=O)cc1OC | 5.2%
CC1(C)CC(=O)C(C=NCCCN2CCOCC2)=C(O)C1 | 11%
O=C1NC(=O)/C(=C\c2ccc(OCc3ccccc3)cc2)S1 | 5.62%
Cl.O.O=c1c2ccccc2nc2n1CC/C2=C/N1CCN(c2cccc(C(F)(F)F)c2)CC1 | 5.54%
COc1ccc(C(=O)N(C)Cc2nc3ccccc3c(=O)[nH]2)cc1S(=O)(=O)N1CCCC1 | 14.7%
COc1cccc(NC(=O)CCNC(=O)N2CC(=O)Nc3ccccc32)c1 | 13.8%
CNc1nc2ccccc2n1N | 10.8%
Clc1cccc(-c2cc3nc4c(c(N5CCN(c6cnccn6)CC5)n3n2)CCCC4)c1 | 3.59%
COC(=O)c1ccccc1-c1ccc(C=O)o1 | 20.5%
CCn1c(SCC(N)=O)nc2cc(S(=O)(=O)N3CCOCC3)ccc21 | -3.71%
CCc1nnc(NC(=O)c2ccc(Cl)nc2)s1 | 12.5%
[O-][Cl+3]([O-])([O-])[O-].c1ccc(-c2cc(-c3ccccc3)[n+](-c3ccccc3)c(-c3ccccc3)c2)cc1 | -27.7%
O=C(O)c1ccc(CSCc2ccccc2Cl)o1 | 11.8%
O=C(CN1CCN(S(=O)(=O)c2ccccc2)CC1)N1CCCCC1 | 8.64%
CC(C)CN(C(=O)CN1CCN(S(=O)(=O)c2ccc3ccccc3c2)CC1)c1c(N)n(CC(C)C)c(=O)[nH]c1=O | 10%
COc1ccc(-c2cc(N)n(CCC#N)n2)c(OC)c1 | 9.09%
CSc1cccc(NC(=S)N(Cc2ccc(C)cc2)Cc2ccccn2)c1 | 4.46%
O=C(Nc1cccnc1)c1ccc(S(=O)(=O)c2ccc(Cl)cc2)cc1 | -1.05%

Structure (SMILES) | hERG current change (%, negative = inhibition) at 1uM
O=C(c1ccc(Cl)cc1)C1CCCN(Cc2ccon2)C1 (stereo not drawn) | -7.89%
O=C(Cc1c(F)cccc1Cl)Nc1ccc(-n2cnnn2)cc1 | 11.7%
COc1ccc(CN2CCN(Cc3ccc(C(F)(F)F)cc3)CC2)c(OC)c1.O=C(O)C(=O)O | -66.6%
CCC(=O)Nc1ccc(C(=O)NNC(=O)c2cc([N+](=O)[O-])cc([N+](=O)[O-])c2)cc1 | 15.3%
COc1ccc(OC)c(C2=NOC(C(=O)Nc3cccnc3)C2)c1 (stereo not drawn) | -3.02%
O=C(NC(=S)NCCOCc1ccc(Cl)cc1)c1cccnc1 | 7.31%
COc1cccc2c(Cl)c(CCCl)c(C)nc12 | 7.62%
CC(NC(=O)Cn1cccc1)c1ccccc1 (stereo not drawn) | 20.4%
O=c1c2cccc3c2c(nn1-c1ccccc1)-c1ccccc1-3 | 16.2%
C/C(=N/NC(N)=S)c1ccc(Br)s1 | 14.7%
O=C(CSc1ccc2nnc(-c3ccc(F)cc3)n2n1)NCc1ccco1 | 6.46%
Cc1ccc(OCC(=O)NCCCNC(=O)c2ccncc2)cc1C | 3.18%
Nc1cccc(C(=O)NCCNC(=O)c2cccc(N)c2)c1 | -0.917%
CC1(C)CC(=O)c2c(S(C)(=O)=O)sc(Br)c2C1 | 4.83%
CC(=O)NCCC(=O)N1CCCC(N2CCN(c3cccc(Cl)c3)CC2)C1 (stereo not drawn) | 20.1%
COC(=O)C1=CO[C@H](C)[C@H]2CN3CC[C@@]4(C(=O)Nc5ccccc54)[C@@H]3C[C@H]12 | 4.41%
CCc1c(C(=O)N/N=C/c2ccc(C)o2)csc1C | 4.97%
COc1ccc(N2CCN(C(=O)CCNS(=O)(=O)c3ccc4c(c3)CCC(=O)N4)CC2)cc1 | -0.211%
FC(F)Oc1ccc(-c2c[n+]3c(n2-c2ccccc2)CCCCC3)cc1 | -33.1%
CC1=Nn2c(nc(-c3ccccc3)c2-c2ccccc2)N(CC(N)=O)C(=O)C1 | 10.4%
O=S(=O)(CCOc1ccccc1)N1CCOCC1 | 13.8%
O=C(c1ccc([N+](=O)[O-])cc1[N+](=O)[O-])N1CCCC1 | 13.2%

Structure (SMILES) | hERG current change (%, negative = inhibition) at 1uM
CC(=O)C1=C(O)C(=O)N(CCCCCC(=O)O)C1c1ccc(N(C)C)cc1 (stereo not drawn) | 5.97%
N#CCSc1nc2cc(C(=O)N3CCC(C(N)=O)CC3)ccc2c2nc3ccccc3n12 | 9.77%
Cc1cccc(NC(=O)Nc2ccc(S(N)(=O)=O)cc2)c1 | 15.7%
CC(=O)c1ccccc1NC(=O)COC(=O)c1ccc2c(c1)nc(C)n2-c1ccccc1 | 20.6%
CCc1ccc(-c2csc3ncn(CC(=O)NCc4ccco4)c(=O)c23)cc1 | 4.89%
CC(CCc1ccccc1)NS(=O)(=O)c1ccccc1 (stereo not drawn) | 5.27%
Cc1ccc(S(=O)(=O)NC2(C(F)(F)F)NC(=O)N(Cc3ccccc3)C2=O)cc1 (stereo not drawn) | 8.16%
O=C(Nc1nc(-c2ccccn2)cs1)C1CC1 | 14.3%
COc1ccc(-c2csc3ncnc(N4CCN(S(=O)(=O)c5cccs5)CC4)c23)cc1 | 2.67%
Cc1cc(OCc2cc(C(=O)N3CCC(Oc4cccnc4)CC3)no2)cc(C)c1Cl | 2.98%
CN(Cc1ccco1)C(=O)Cn1ncc2c([nH]c3ccccc32)c1=O | 9.75%
CN(c1ccccc1)S(=O)(=O)c1ccc(C(=O)Nc2nnc(-c3ccc(F)cc3)o2)cc1 | 14.4%
CSc1nc2nc3c(cc2c(=O)n1-c1ccc(C)cc1)COC(C)(C)C3 | 11.2%
COc1ccc(OC)c(N/C(=N/c2nc(C)cc(C)n2)NC(C)=O)c1 | 9.71%
COc1ccc(-c2cc(=O)oc3c(C)c(O)ccc23)cc1 | 21.5%
CCC(=O)NC(c1cccs1)c1cc(Cl)c2cccnc2c1O (stereo not drawn) | 12.4%
COc1ccc2[nH]c(=O)c(-c3nnn(-c4ccc(F)cc4)n3)cc2c1 | 2.23%
CCN(CC)c1ccc(/C=C/C(=O)c2ccc(Br)cc2)cc1 | 10.1%
Cc1ccc(/C=C/C(=O)c2c(C)nc3ccccn23)cc1 | -3.46%
CC(NC(=O)C12CC3CC(C1)CC(n1cncn1)(C3)C2)C12CC3CC(CC(C3)C1)C2 (stereo not drawn) | -19.9%
COc1ccc(CNC(=S)Nc2ccc(F)c(Cl)c2)cc1 | 3.8%
COc1cccc2c1Oc1ncccc1N(C(=O)CCC(=O)NCc1ccccc1)C2 | 5.29%

Structure (SMILES) | hERG current change (%, negative = inhibition) at 1uM
Cc1cc(C)c(NC(=S)NC(=O)c2c(Cl)c(C)nn2C)c([N+](=O)[O-])c1 | 10.4%
COC(=O)CSc1nnc(CNC(=O)c2ccccc2OC)n1-c1ccc(OC)cc1 | 2.24%
CCOc1ccc(NC(=O)c2ccccc2C(=O)c2ccccc2)cc1OCC | 16.3%
Cc1nn(CC(=O)Nc2ccc(C(C)C)cc2)c(C)c1[N+](=O)[O-] | 12%
O=C(C(Cc1ccc(Cl)cc1)NS(=O)(=O)c1ccccc1)N1CC[C@@]2(O)CCCC[C@H]2C1 (stereo partly drawn) | -18.5%
CC(OCC(O)CN(C)Cc1nc2ccccc2c(=O)[nH]1)c1ccc(Cl)cc1 (stereo not drawn) | -2.63%
COc1ccc(-c2nn(-c3ccccc3)cc2C2CC(c3cccs3)=NN2C(=O)CCC(=O)O)cc1 (stereo not drawn) | 14.2%
CCN(CC)CCn1c2c(c(SCC(=O)Nc3cc(OC)cc(OC)c3)nc1=O)CCC2 | -41.6%
Cc1c(OC(C)C(=O)NCCCN2CCOCC2)ccc2c3c(c(=O)oc12)CCC3 (stereo not drawn) | 16.5%
CNC(=S)Nc1ccc(N2CCN(c3ccc(C(F)(F)F)cn3)CC2)nc1 | 13.4%
N#CCCN=C(NS(=O)(=O)c1ccccc1)c1ccccc1 | 2.49%
CCCNC(=O)N1[C@H]2CC[C@@H]1C(C(=O)OC)=C(c1cccc(Cl)c1)C2 | 51%
N#Cc1c(N)n[nH]c1-c1cc2c([nH]1)CCCC2 | -5.87%
O=C(NC(=S)Nc1ccc(N2CCOCC2)cc1)c1cccc(Cl)c1 | 7.24%
Clc1ccc2nc(C3CCN(Cc4ccccc4)CC3)[nH]c2c1 | -73.7%
CCOn1c(=O)c(C)[n+]([O-])c2ccccc21 | -0.535%
COC(=O)CNc1n[nH]c(=S)[nH]c1=O | 10.9%
O=C(O)CC1S/C(=N\N=C/c2ccccc2O)N(c2ccc(O)cc2)C1=O (stereo not drawn) | 14.1%
Cc1cccc(-c2n[nH]c([N+](=O)[O-])n2)c1 | 16.6%
COc1ccc(OC)c(CN2CCN(C(=O)c3cccc(S(=O)(=O)Nc4ccccc4OC)c3)CC2)c1 | 15.1%
C=CCn1c(=O)/c(=C2/SC(C)=C(C)N2CC)s/c1=C1/C(=O)N(CC)C(=S)N1c1ccccc1 | 0.0913%
